Among the data in paper PMC5515408 are binding signal (log2 normalized fluorescence) values, retold here.

This is one part of the list. At the low end of the ranking, values are background and their order means little.

This experiment concerns the target MAX:MAX (p21) (UniProt P61244-2). In words: protein-binding microarray (anti-MAX antibody). Particulars: PBM: 15 mM Tris-HCl pH 7.5, 100 mM KCl, 0.075% NP40, 7.5 mM beta-mercaptoethanol, 375 ng/ul BSA, 8 ng/ul poly(dA-dT):(dA-dT), 550 ng complex, 60 min, room …; high values mean tight binding; double strand, one strand shown; sequences stand for … in CCGGC…TTAATAGCTAAGATTACTATATCGACG
TGAAGAGCAGTA came in with a binding signal (log2 normalized fluorescence) of -0.755. For TGACACGAGTTA the value was 2.78. On to TGACGTTGGGTA, for which the binding signal (log2 normalized fluorescence) was -0.416. For TGAAGGTTCGTA the value was -0.61; for TGAAATGGGGTA, 0.322; for TGATTACGTGTA, 0.238. Then TGACACGCCTTA, with 2.72; and TGATAAAATGTA, with -0.899.

In turn, TGAGCCATTGTA showed a binding signal (log2 normalized fluorescence) of -0.773. Then TGAACACCAGTA, with 0.0132. Then GCACACTTGGTA, with 2.75; and TGACTATGTGTA, with -0.204. For TGAATGGAGGTA the value was 0.176; for TGACGGCCTGTA, -0.00025; for TGACCGAAGGTA, -0.41. For the sequence TGAACCCTGGTA, the binding signal (log2 normalized fluorescence) was -0.595. Then TGAGAAAAGGTA, with -0.923. Then TGACCGTAGGTA, with -0.615; and TGAATCCATGTA, with 0.0473; and TGATGTCAGGTA, with -0.106. In turn, TGACAGCGGGTA registered a binding signal (log2 normalized fluorescence) of 0.704. For TGAGAACACGTA the value was 0.443. Then TGACCAGCCGTA, with -0.437; and TGAACTCTCGTA, with -0.499.

With CGACATGTGGTG, the binding signal (log2 normalized fluorescence) was 3.43. Then TGATCCCCCGTA, with -0.597; and TGAGGAAAAGTA, with -0.511. The sequence TGAGCGATTGTA returned a binding signal (log2 normalized fluorescence) of -0.93. For AGATACGTGGTG the value was 1.38; for TGAGCTGCAGTA, 0.0121; for TGAAATCAAGTA, -0.702. For TGACGCATGGTA the value was 2.99; for TGATAAAACGTA, -0.705; for TGATGACGCGTA, 0.0312. Then TGAACTCAAGTA, with -0.476; and GCCTAGTTGTGC, with -0.921. The sequence AAACACGTTGTA returned a binding signal (log2 normalized fluorescence) of 3.31.

For the sequence TGACATTGCGTA, the binding signal (log2 normalized fluorescence) was determined as 0.358.

For TGAAACACAGTA, the binding signal (log2 normalized fluorescence) was -0.00176. Sequence TAACACGTAGTA gave a binding signal (log2 normalized fluorescence) of 1.92. For TGAAGGGCCGTA the value was -0.515; for AGACACTTAGTA, 0.466. Then TGAATACAGGTA, with -0.531; and TGATTTGTTGTA, with -1.32; and TGACATAAGGTA, with 0.803. Then TGATCAGATGTA, with 0.894. TGACGGGTAGTA came in with a binding signal (log2 normalized fluorescence) of -0.586. Turning to TGAGGGGGCGTA, the binding signal (log2 normalized fluorescence) worked out at 1.87. For TGATGGCTTGTA the value was 0.135; for TGATATCGAGTA, -0.79; for TGACGGCCAGTA, -0.778. Then TGACTTTTCGTA, with -1.18. TGATTGAACGTA came in with a binding signal (log2 normalized fluorescence) of -0.835. For TGAGACGTCTTA the value was -0.793; for TGAGGGATTGTA, -0.676; for TGATTGGATGTA, -0.659. Then TGACGATAGGTA, with -0.631; and CGACACGCGGTA, with 2.86; and TGAGCCTGCGTA, with -0.0594. For TGATTAAGAGTA the value was -0.997; for TGAGACTACGTA, -0.643; for TGACTCATCGTA, -0.191. In turn, TGATGAACCGTA showed a binding signal (log2 normalized fluorescence) of -0.499. Then TGACCCCGTGTA, with 2.72. For TGATTTTCAGTA the value was -1.29. Then TGATCCACAGTA, with -0.304. TGACGGGCTGTA had a binding signal (log2 normalized fluorescence) of -0.169.

As for TGAAGGAGCGTA, the binding signal (log2 normalized fluorescence) was -0.583. The sequence TGAAGGGGAGTA had a binding signal (log2 normalized fluorescence) of -0.038. Then TGAAAGGCGGTA, with -0.124. Then TGACTGGCAGTA, with 0.00633; and TGAATCTAAGTA, with -1.07; and TGAAACGAAGTA, with -0.434. Sequence TGACCGCGAGTA had a binding signal (log2 normalized fluorescence) of 1.06.

Consider TGACTCTTCGTA, for which the binding signal (log2 normalized fluorescence) was -0.649. Then TGAGTCAGAGTA, with -0.392; and TGACCTCACGTA, with 0.812. As to TGAGGCGTAGTA, the binding signal (log2 normalized fluorescence) was -0.65. Then AGACGCGTGGTA, with 3.26; and TGATGCGGGGTA, with 0.595. Consider TGATTATCAGTA, for which the binding signal (log2 normalized fluorescence) was -0.45.

Turning to TGACCACAGGTA, the binding signal (log2 normalized fluorescence) came to 0.632. TGAGGGTACGTA: the binding signal (log2 normalized fluorescence) was -0.549. The sequence TGAAGGAAGGTA showed a binding signal (log2 normalized fluorescence) of -0.568. For TGAACGTTGGTA the value was 0.152; for TGAAGATCCGTA, -0.871. Then TGATACGCAGTA, with -0.832.

With TGAGTGTCAGTA, the binding signal (log2 normalized fluorescence) is -0.0924.

For the sequence TGAAAATCAGTA, the binding signal (log2 normalized fluorescence) was -0.993. For TGACGACCTGTA the value was -0.051; for TGACCATTAGTA, -0.271. For TGAGACCAGGTA the value was -0.704. In the case of AAACACGTAGTA, the binding signal (log2 normalized fluorescence) is 2.6. For GTACCCGTGGTA the value was 2.98; for TGACATGTGGTA, 2.89; for TGAGCTCAAGTA, -0.665. Take TGAGTTCCAGTA: the binding signal (log2 normalized fluorescence) is -1.19. In turn, TGACTCAGTGTA showed a binding signal (log2 normalized fluorescence) of -0.523. For TGAATGTACGTA the value was 0.22; for TGATTAGCCGTA, -1.32. TGACAAATTGTA returned a binding signal (log2 normalized fluorescence) of -0.694. Then TGAGATTATGTA, with -0.948; and AGTCACGTGGTA, with 3.18.

With TGACTCATGGTA, the binding signal (log2 normalized fluorescence) was 2.31. Then TGAAAGGAGGTA, with -0.166; and TGAATCCCAGTA, with -0.681. For TGAGCCTACGTA the value was -1.06; for TGATTGTGTGTA, 0.16; for TGAAACGTGCTA, 2.99. Take TGACCGTCGGTA: the binding signal (log2 normalized fluorescence) was -0.357. The sequence TGACCTAATGTA displayed a binding signal (log2 normalized fluorescence) of -0.229. Then TGAACACCGGTA, with 0.472. For TGATATTAGGTA the value was -1.08; for TGAGACTAGGTA, -1.05. For TGAGCAAAAGTA the value was -1.03; for TGAGTTGACGTA, -0.355; for TGACTAAAGGTA, -0.935. The sequence TGAATTGAAGTA yielded a binding signal (log2 normalized fluorescence) of -0.794. For TGATTACTCGTA the value was -0.895. For TGACAGCGTGTA the value was 2.9.

Consider TGAGTTAGGGTA, for which the binding signal (log2 normalized fluorescence) was -0.799.

Take TGAGTATCCGTA: the binding signal (log2 normalized fluorescence) was -1.25. Then TGAACCAAGGTA, with -0.369; and TGAGGGTAGGTA, with -0.702; and TGAGGCGCGGTA, with 0.391. For TGAATCGCTGTA the value was -0.618. Then TGAACTCGGGTA, with -0.618; and TGACACTTGGTT, with 0.395; and TGAACTACCGTA, with -0.334.

In the case of TGAATCCGGGTA, the binding signal (log2 normalized fluorescence) is -1.16. For the sequence TGATGCGGTGTA, the binding signal (log2 normalized fluorescence) turned out to be 0.000801.

Sequence TGATAGGGCGTA gave a binding signal (log2 normalized fluorescence) of -1.06.

The sequence TGACCGCATGTA displayed a binding signal (log2 normalized fluorescence) of 3.27. Take TGAAACCCGGTA: the binding signal (log2 normalized fluorescence) is -0.543.

Take TGACGATCAGTA: the binding signal (log2 normalized fluorescence) is -0.426. For TGATATCTAGTA the value was -1.05.

TGAGACAAGGTA registered a binding signal (log2 normalized fluorescence) of -0.681.

TGAAAACAGGTA came in with a binding signal (log2 normalized fluorescence) of -0.534. For TGATTTCGCGTA the value was -0.735; for TGAGATTGAGTA, -1.04; for TGACTTCATGTA, 0.0412. Then TGACCTTGTGTA, with 1.29; and TGCGCCGTGGTA, with 1.16.

In the case of TGAAGTCTAGTA, the binding signal (log2 normalized fluorescence) was -1.27. For TGAGATAGAGTA the value was -1.16; for TGACTTGCAGTA, -0.18; for TGACCTGCTGTA, 0.214. Then TGATATCTCGTA, with -0.983; and TGAATATGCGTA, with -0.0985; and TGAACCTTAGTA, with -0.553. TCTCTGAATGAT returned a binding signal (log2 normalized fluorescence) of -0.7.

Sequence TGAGAATCCGTA registered a binding signal (log2 normalized fluorescence) of -1.3. Then TGATCCTAGGTA, with -0.991. Consider TGAACTTTCGTA, for which the binding signal (log2 normalized fluorescence) was -0.635. For TGACGTAGGGTA the value was -0.61; for TGAGTGTCGGTA, -0.348. On to TGCTCCGTGGTA, for which the binding signal (log2 normalized fluorescence) stood at 0.561.

As to TGATCATAAGTA, the binding signal (log2 normalized fluorescence) worked out at 0.184. For the sequence TGACAAGTGGTC, the binding signal (log2 normalized fluorescence) is 0.772. The sequence ATTTACAGGCTA displayed a binding signal (log2 normalized fluorescence) of 0.204. Then TGATTACCGGTA, with -0.948; and TGATTCGGCGTA, with -1.09.

In turn, TGAAATGTCGTA returned a binding signal (log2 normalized fluorescence) of -0.485. For TGAACGTGCGTA the value was 2.46.
